The results in this text go back to the BET-seq Pho4 binding data (Le et al. 2018).

The other results are listed elsewhere or left out. Values were computed here from the reads of four pooled replicates and scatter widely.

This assay deals with T1, Pho4 (S. cerevisiae) (UniProt P07270).
T1 sequence: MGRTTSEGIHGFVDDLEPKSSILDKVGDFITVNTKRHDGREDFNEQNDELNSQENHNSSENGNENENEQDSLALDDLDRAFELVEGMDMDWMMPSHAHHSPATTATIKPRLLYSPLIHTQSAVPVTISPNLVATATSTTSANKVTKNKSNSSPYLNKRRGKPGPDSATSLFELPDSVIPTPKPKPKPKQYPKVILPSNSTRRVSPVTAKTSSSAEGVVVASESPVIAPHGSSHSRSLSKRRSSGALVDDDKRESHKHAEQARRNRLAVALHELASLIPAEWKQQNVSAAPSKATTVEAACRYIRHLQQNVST
As to the kind of experiment: relative binding free energy (BET-seq); higher = weaker binding. The following applies: reference: library average.
In the case of TGCTGCACGTGGTATG, the “relative binding free energy” value was -0.03 kcal/mol. Regarding TCTAGCACGTGGCGGG, the “relative binding free energy” value was -0.28 kcal/mol. Regarding ATCGTCACGTGGAGAG, the “relative binding free energy” value was determined as 0.07 kcal/mol. As to GTAAGCACGTGGTTCG, the “relative binding free energy” value was -0.08 kcal/mol.

As to CTTTACACGTGAAGGG, the “relative binding free energy” value was determined as 0.41 kcal/mol. Take GGGGTCACGTGGTCGG: the “relative binding free energy” value stood at 0.06 kcal/mol.

In the case of TAGTTCACGTGTGGTC, the “relative binding free energy” value amounted to 0.3 kcal/mol. Consider TCAGTCACGTGTGGGT, for which the “relative binding free energy” value worked out at 0.07 kcal/mol. In the case of ATAGACACGTGAAGTT, the “relative binding free energy” value was found to be 0.16 kcal/mol. Take ACATGCACGTGAGTGT: the “relative binding free energy” value was 0.15 kcal/mol. To TAGTCCACGTGGTGGT belongs -0.01 kcal/mol; to ATTAACACGTGGGCGG, -0.17 kcal/mol. With GTGTACACGTGTACGG, the “relative binding free energy” value was determined as 0.1 kcal/mol. For CTTGTCACGTGCGTTT, the “relative binding free energy” value was -0.09 kcal/mol. Take GGAGACACGTGTATAG: the “relative binding free energy” value was determined as 0.03 kcal/mol. In the case of CGTGGCACGTGTTTAA, the “relative binding free energy” value was -0.01 kcal/mol.

Take TCGGTCACGTGTTGGA: the “relative binding free energy” value was 0.16 kcal/mol. To AGATGCACGTGTTTTG belongs -0.05 kcal/mol; to AGGGACACGTGTAGGT, 0.05 kcal/mol; to GGGTTCACGTGGTTAG, 0.27 kcal/mol. Turning to ACGTACACGTGGGTTT, the “relative binding free energy” value is -0.12 kcal/mol.

For the sequence CTGGCCACGTGAGGGG, the “relative binding free energy” value was 0.09 kcal/mol. As for TTAGTCACGTGTCGGA, the “relative binding free energy” value was determined as 0.07 kcal/mol. Turning to GTGATCACGTGTAATT, the “relative binding free energy” value was determined as 0.29 kcal/mol. In the case of TAAAGCACGTGTGTGT, the “relative binding free energy” value was -0.05 kcal/mol. ATTACCACGTGATGTT: the “relative binding free energy” value was 0.06 kcal/mol. Regarding ACAGACACGTGTTGTG, the “relative binding free energy” value was determined as 0.04 kcal/mol. With TTAGGCACGTGTTTTG, the “relative binding free energy” value was -0.12 kcal/mol. Turning to TGTGTCACGTGACTGA, the “relative binding free energy” value came out at 0 kcal/mol. With TAGTGCACGTGGCGGC, the “relative binding free energy” value is -0.13 kcal/mol. Consider GGGTGCACGTGTCGGG, for which the “relative binding free energy” value came to 0.1 kcal/mol.

For CGGTGCACGTGGGGGG, the “relative binding free energy” value is -0.11 kcal/mol.

On to CTTGGCACGTGAGTTG, for which the “relative binding free energy” value was determined as 0.13 kcal/mol. To GGGGACACGTGGTAGG belongs 0.01 kcal/mol; to CTCTTCACGTGTTGTT, 0.16 kcal/mol. For the sequence TAGTGCACGTGGAGTG, the “relative binding free energy” value is -0.07 kcal/mol. For the sequence CATGGCACGTGGAGCG, the “relative binding free energy” value was found to be 0 kcal/mol. TGTCTCACGTGGAGTT: the “relative binding free energy” value came to 0.09 kcal/mol. GTAAGCACGTGCGGGG: the “relative binding free energy” value was -0.15 kcal/mol. GGAATCACGTGGTAAA: the “relative binding free energy” value is 0.24 kcal/mol.

As for AAATTCACGTGGGATG, the “relative binding free energy” value was found to be 0.28 kcal/mol. As to TTATTCACGTGAGCTA, the “relative binding free energy” value turned out to be 0.47 kcal/mol.

In the case of TAAGGCACGTGGGGCC, the “relative binding free energy” value was -0.09 kcal/mol.

Regarding TTTTCCACGTGAGGTT, the “relative binding free energy” value is 0.19 kcal/mol. For GGAGGCACGTGGGTAC the value was -0.22 kcal/mol. To AGGCTCACGTGTGTAG belongs 0.1 kcal/mol. For ATTTTCACGTGTTTAG, the “relative binding free energy” value was 0.3 kcal/mol. As for ATGTGCACGTGTTTCA, the “relative binding free energy” value is -0.17 kcal/mol. Consider CGTGCCACGTGTGTTG, for which the “relative binding free energy” value was -0.19 kcal/mol.

Take TAGGTCACGTGAAATG: the “relative binding free energy” value turned out to be 0.2 kcal/mol. As to AGTTACACGTGATTGT, the “relative binding free energy” value stood at 0.22 kcal/mol. For the sequence CTAGGCACGTGTGTAT, the “relative binding free energy” value was -0.12 kcal/mol. As for GTGGACACGTGGACGG, the “relative binding free energy” value is 0.12 kcal/mol.

Regarding GTTATCACGTGGGGCT, the “relative binding free energy” value was 0.01 kcal/mol. Regarding TTCCGCACGTGGATGG, the “relative binding free energy” value is 0.06 kcal/mol.

AGGGTCACGTGACGTT: the “relative binding free energy” value is 0.16 kcal/mol. In the case of ATAGTCACGTGGGTAA, the “relative binding free energy” value was -0.17 kcal/mol. For TCGTTCACGTGATTTA the value was 0.25 kcal/mol; for GTAGTCACGTGCGGAG, 0.05 kcal/mol; for CGTTTCACGTGGTGCA, 0.24 kcal/mol.

Turning to ATCTACACGTGATGGT, the “relative binding free energy” value was 0.23 kcal/mol. To TAGGGCACGTGCGTAT belongs -0.08 kcal/mol. On to TTTTCCACGTGATGGA, for which the “relative binding free energy” value came to 0.27 kcal/mol. As to TTGTCCACGTGTGGGA, the “relative binding free energy” value is -0.16 kcal/mol. Turning to GTATGCACGTGTCGCG, the “relative binding free energy” value was determined as 0 kcal/mol.

With AGTTTCACGTGCGGGA, the “relative binding free energy” value is 0.28 kcal/mol. Take TTTAACACGTGTATAA: the “relative binding free energy” value was -0.11 kcal/mol. For the sequence ATGGGCACGTGTTTAA, the “relative binding free energy” value is -0.2 kcal/mol. TATTTCACGTGTGAGG: the “relative binding free energy” value was 0.26 kcal/mol. As for ACCTTCACGTGGTTGG, the “relative binding free energy” value is 0.4 kcal/mol. For the sequence AGTTCCACGTGGGTGG, the “relative binding free energy” value is -0.14 kcal/mol. Regarding AGGTTCACGTGGTACA, the “relative binding free energy” value was determined as 0.21 kcal/mol. As for TTTTACACGTGGGATC, the “relative binding free energy” value was found to be 0.1 kcal/mol.

For CAGGGCACGTGCATGG, the “relative binding free energy” value was -0.22 kcal/mol. In the case of TCGTTCACGTGATTGG, the “relative binding free energy” value was determined as 0.37 kcal/mol. In the case of ATTGGCACGTGTGTTC, the “relative binding free energy” value was -0.05 kcal/mol. For GTGTGCACGTGCATTA, the “relative binding free energy” value is 0 kcal/mol. As to AGGTGCACGTGTACAT, the “relative binding free energy” value worked out at 0.04 kcal/mol. Take TGTACCACGTGAGTGG: the “relative binding free energy” value was 0.2 kcal/mol. To GGTGACACGTGGGCGA belongs 0.03 kcal/mol; to TGTAACACGTGATGCG, 0.09 kcal/mol; to GTGAACACGTGCGGGT, 0.04 kcal/mol. For TCGATCACGTGGAGTT, the “relative binding free energy” value worked out at 0.02 kcal/mol.

With TTCGACACGTGAGGTT, the “relative binding free energy” value was determined as 0.23 kcal/mol. Consider TGCGACACGTGGTCGT, for which the “relative binding free energy” value was -0.01 kcal/mol.

GAGATCACGTGTTTTA: the “relative binding free energy” value was 0.21 kcal/mol. With TTTATCACGTGGCTGG, the “relative binding free energy” value was 0.09 kcal/mol.

As for GGAGACACGTGATGGG, the “relative binding free energy” value was found to be 0.15 kcal/mol.

For the sequence TAATACACGTGTTATG, the “relative binding free energy” value stood at 0.07 kcal/mol. For the sequence CTCGACACGTGTTTGT, the “relative binding free energy” value turned out to be 0.04 kcal/mol. In the case of TATTTCACGTGAGGAT, the “relative binding free energy” value stood at 0.37 kcal/mol. For the sequence GTGTACACGTGTAGAT, the “relative binding free energy” value came out at 0.07 kcal/mol.

Turning to GTAATCACGTGTGTTG, the “relative binding free energy” value worked out at 0.11 kcal/mol. With AAATTCACGTGTTGAG, the “relative binding free energy” value amounted to 0.25 kcal/mol. To TCGGTCACGTGTGTAA belongs 0.11 kcal/mol; to TGTGTCACGTGCATGT, -0.01 kcal/mol. For ATTGGCACGTGGGGGG the value was -0.23 kcal/mol; for CTTTTCACGTGAATGG, 0.42 kcal/mol; for GGGCGCACGTGGGATC, -0.12 kcal/mol.

In the case of AGCGTCACGTGGTTTG, the “relative binding free energy” value was 0.08 kcal/mol.

For TGGTGCACGTGTCCAG, the “relative binding free energy” value stood at 0.02 kcal/mol.

TGGCTCACGTGGTTAG: the “relative binding free energy” value is 0.14 kcal/mol. As for GTTGGCACGTGGAAGA, the “relative binding free energy” value turned out to be 0.01 kcal/mol.

With TGTATCACGTGATCGA, the “relative binding free energy” value stood at 0.21 kcal/mol. As to TTGTGCACGTGCTGTC, the “relative binding free energy” value was -0.14 kcal/mol. For the sequence GGTCTCACGTGTTTAG, the “relative binding free energy” value amounted to 0.29 kcal/mol. On to GAATGCACGTGGCATT, for which the “relative binding free energy” value amounted to 0.1 kcal/mol. To AGCGGCACGTGCTGGT belongs -0.26 kcal/mol. To GGTTGCACGTGTACGA belongs 0.16 kcal/mol. With TTCGGCACGTGGCGGT, the “relative binding free energy” value was -0.05 kcal/mol. For TTTCTCACGTGTGTGT, the “relative binding free energy” value came out at 0.27 kcal/mol. With ATGATCACGTGTGCAG, the “relative binding free energy” value was 0.13 kcal/mol.

Regarding GGTCGCACGTGGACGG, the “relative binding free energy” value was -0.11 kcal/mol. For TTTCTCACGTGTGAAA the value was 0.29 kcal/mol. For AGCATCACGTGTTTTG the value was 0.15 kcal/mol; for GGACGCACGTGGTGAG, -0.07 kcal/mol; for GGTCTCACGTGGTGTA, 0.22 kcal/mol. In the case of CTTGACACGTGGGAGG, the “relative binding free energy” value was -0.13 kcal/mol. With GTCCTCACGTGAGTGT, the “relative binding free energy” value came out at 0.31 kcal/mol. With TGAGTCACGTGTCATG, the “relative binding free energy” value is -0.02 kcal/mol. With TTGCTCACGTGTGGGC, the “relative binding free energy” value stood at 0.27 kcal/mol. As to GGTCACACGTGTGGTG, the “relative binding free energy” value was found to be 0.12 kcal/mol. ATGTACACGTGTACAG: the “relative binding free energy” value was 0.2 kcal/mol. For TTACGCACGTGGTTGC, the “relative binding free energy” value is -0.14 kcal/mol. With TACGTCACGTGATGTA, the “relative binding free energy” value was 0.1 kcal/mol. In the case of ACTAGCACGTGGGTAT, the “relative binding free energy” value came to 0.05 kcal/mol.

GGATGCACGTGGTTAA: the “relative binding free energy” value was -0.1 kcal/mol. For the sequence CCGGTCACGTGGGTGG, the “relative binding free energy” value was -0.1 kcal/mol. For CGACTCACGTGGGGGT, the “relative binding free energy” value worked out at 0.06 kcal/mol. Turning to TTTTACACGTGGGGCT, the “relative binding free energy” value is -0.06 kcal/mol.

Regarding AAAATCACGTGGAGGT, the “relative binding free energy” value came to 0.08 kcal/mol. Consider TGGGGCACGTGTGTCA, for which the “relative binding free energy” value was -0.1 kcal/mol. On to CAGGGCACGTGCGCGG, for which the “relative binding free energy” value was -0.21 kcal/mol. For ATTAGCACGTGGTTCG the value was -0.14 kcal/mol.

Regarding TCTGTCACGTGTCGTA, the “relative binding free energy” value amounted to 0.19 kcal/mol. Take AGATTCACGTGAGGAG: the “relative binding free energy” value came to 0.36 kcal/mol.

Consider CGGTGCACGTGATAGA, for which the “relative binding free energy” value was determined as 0.17 kcal/mol.

With CTTTGCACGTGGTCGG, the “relative binding free energy” value was -0.17 kcal/mol. With TAAAACACGTGGGCGG, the “relative binding free energy” value is -0.11 kcal/mol. Take ATAAGCACGTGATGAG: the “relative binding free energy” value came out at 0 kcal/mol. As to GGTTTCACGTGGCGAA, the “relative binding free energy” value amounted to 0.38 kcal/mol. Consider CGTGGCACGTGATGTG, for which the “relative binding free energy” value amounted to 0.04 kcal/mol. For TTGCTCACGTGAGGGG, the “relative binding free energy” value turned out to be 0.33 kcal/mol. To CGGGCCACGTGCGGTG belongs -0.29 kcal/mol. TGTGGCACGTGTATCA: the “relative binding free energy” value was -0.15 kcal/mol. For the sequence GATGTCACGTGGGATA, the “relative binding free energy” value worked out at 0.03 kcal/mol.
